Measured values published in BigSolDB 2.1.

## O=C(c1ccccc1)c1ccccc1
In acetone, 278.15 K
  solubility (mole fraction): 0.31
In acetone, 283.15 K
  solubility (mole fraction): 0.35
In acetone, 288.15 K
  solubility (mole fraction): 0.381
In acetone, 293.15 K
  solubility (mole fraction): 0.427
In acetone, 298.15 K
  solubility (mole fraction): 0.491
In acetone, 303.15 K
  solubility (mole fraction): 0.562
In acetone, 308.15 K
  solubility (mole fraction): 0.669
In acetone, 313.15 K
  solubility (mole fraction): 0.755
In acetone, 318.15 K
  solubility (mole fraction): 0.906
In acetonitrile, 278.15 K
  solubility (mole fraction): 0.301
In acetonitrile, 283.15 K
  solubility (mole fraction): 0.33
In acetonitrile, 288.15 K
  solubility (mole fraction): 0.368
In acetonitrile, 293.15 K
  solubility (mole fraction): 0.419
In acetonitrile, 298.15 K
  solubility (mole fraction): 0.475
In acetonitrile, 303.15 K
  solubility (mole fraction): 0.543
In acetonitrile, 308.15 K
  solubility (mole fraction): 0.633
In acetonitrile, 313.15 K
  solubility (mole fraction): 0.722
In acetonitrile, 318.15 K
  solubility (mole fraction): 0.848
In ethanol, 278.15 K
  solubility (mole fraction): 0.0316
In ethanol, 283.15 K
  solubility (mole fraction): 0.0425
In ethanol, 288.15 K
  solubility (mole fraction): 0.0615
In ethanol, 293.15 K
  solubility (mole fraction): 0.0917
In ethanol, 298.15 K
  solubility (mole fraction): 0.139
In ethanol, 303.15 K
  solubility (mole fraction): 0.208
In ethanol, 308.15 K
  solubility (mole fraction): 0.29
In ethanol, 313.15 K
  solubility (mole fraction): 0.391
In ethanol, 318.15 K
  solubility (mole fraction): 0.573
In ethyl acetate, 278.15 K
  solubility (mole fraction): 0.281
In ethyl acetate, 283.15 K
  solubility (mole fraction): 0.328
In ethyl acetate, 288.15 K
  solubility (mole fraction): 0.358
In ethyl acetate, 293.15 K
  solubility (mole fraction): 0.399
In ethyl acetate, 298.15 K
  solubility (mole fraction): 0.455
In ethyl acetate, 303.15 K
  solubility (mole fraction): 0.533
In ethyl acetate, 308.15 K
  solubility (mole fraction): 0.607
In ethyl acetate, 313.15 K
  solubility (mole fraction): 0.692
In ethyl acetate, 318.15 K
  solubility (mole fraction): 0.828
In isobutanol, 278.15 K
  solubility (mole fraction): 0.135
In isobutanol, 283.15 K
  solubility (mole fraction): 0.161
In isobutanol, 288.15 K
  solubility (mole fraction): 0.198
In isobutanol, 293.15 K
  solubility (mole fraction): 0.244
In isobutanol, 298.15 K
  solubility (mole fraction): 0.295
In isobutanol, 303.15 K
  solubility (mole fraction): 0.378
In isobutanol, 308.15 K
  solubility (mole fraction): 0.453
In isobutanol, 313.15 K
  solubility (mole fraction): 0.597
In isobutanol, 318.15 K
  solubility (mole fraction): 0.786
In isopropanol, 278.15 K
  solubility (mole fraction): 0.0614
In isopropanol, 283.15 K
  solubility (mole fraction): 0.0756
In isopropanol, 288.15 K
  solubility (mole fraction): 0.105
In isopropanol, 293.15 K
  solubility (mole fraction): 0.155
In isopropanol, 298.15 K
  solubility (mole fraction): 0.213
In isopropanol, 303.15 K
  solubility (mole fraction): 0.284
In isopropanol, 308.15 K
  solubility (mole fraction): 0.391
In isopropanol, 313.15 K
  solubility (mole fraction): 0.502
In isopropanol, 318.15 K
  solubility (mole fraction): 0.672
In methanol, 278.15 K
  solubility (mole fraction): 0.0208
In methanol, 283.15 K
  solubility (mole fraction): 0.0262
In methanol, 288.15 K
  solubility (mole fraction): 0.0392
In methanol, 293.15 K
  solubility (mole fraction): 0.0542
In methanol, 298.15 K
  solubility (mole fraction): 0.0867
In methanol, 303.15 K
  solubility (mole fraction): 0.13
In methanol, 308.15 K
  solubility (mole fraction): 0.208
In methanol, 313.15 K
  solubility (mole fraction): 0.302
In methanol, 318.15 K
  solubility (mole fraction): 0.455
In methyl acetate, 278.15 K
  solubility (mole fraction): 0.206
In methyl acetate, 283.15 K
  solubility (mole fraction): 0.234
In methyl acetate, 288.15 K
  solubility (mole fraction): 0.278
In methyl acetate, 293.15 K
  solubility (mole fraction): 0.334
In methyl acetate, 298.15 K
  solubility (mole fraction): 0.392
In methyl acetate, 303.15 K
  solubility (mole fraction): 0.455
In methyl acetate, 308.15 K
  solubility (mole fraction): 0.518
In methyl acetate, 313.15 K
  solubility (mole fraction): 0.613
In methyl acetate, 318.15 K
  solubility (mole fraction): 0.719
In n-butanol, 278.15 K
  solubility (mole fraction): 0.131
In n-butanol, 283.15 K
  solubility (mole fraction): 0.159
In n-butanol, 288.15 K
  solubility (mole fraction): 0.191
In n-butanol, 293.15 K
  solubility (mole fraction): 0.236
In n-butanol, 298.15 K
  solubility (mole fraction): 0.285
In n-butanol, 303.15 K
  solubility (mole fraction): 0.354
In n-butanol, 308.15 K
  solubility (mole fraction): 0.433
In n-butanol, 313.15 K
  solubility (mole fraction): 0.577
In n-butanol, 318.15 K
  solubility (mole fraction): 0.766
In n-octanol, 278.15 K
  solubility (mole fraction): 0.139
In n-octanol, 283.15 K
  solubility (mole fraction): 0.169
In n-octanol, 288.15 K
  solubility (mole fraction): 0.209
In n-octanol, 293.15 K
  solubility (mole fraction): 0.256
In n-octanol, 298.15 K
  solubility (mole fraction): 0.305
In n-octanol, 303.15 K
  solubility (mole fraction): 0.384
In n-octanol, 308.15 K
  solubility (mole fraction): 0.483
In n-octanol, 313.15 K
  solubility (mole fraction): 0.617
In n-octanol, 318.15 K
  solubility (mole fraction): 0.806
In n-propanol, 278.15 K
  solubility (mole fraction): 0.0775
In n-propanol, 283.15 K
  solubility (mole fraction): 0.0958
In n-propanol, 288.15 K
  solubility (mole fraction): 0.123
In n-propanol, 293.15 K
  solubility (mole fraction): 0.164
In n-propanol, 298.15 K
  solubility (mole fraction): 0.219
In n-propanol, 303.15 K
  solubility (mole fraction): 0.313
In n-propanol, 308.15 K
  solubility (mole fraction): 0.419
In n-propanol, 313.15 K
  solubility (mole fraction): 0.538
In n-propanol, 318.15 K
  solubility (mole fraction): 0.708
